Out of some 39,000 compounds screened, about 220 (0.56%) showed activity. The list shows a part of the results.
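Note: static incubation at 37 °C against the wild-type strain, values averaged over two biological replicates.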

The test system of the test is Escherichia coli K-12 BW25113. Briefly: relative growth (OD600 normalised to plate interquartile mean) (fraction); higher = less growth inhibition, active = 0.2 or less. The following applies: 50 µM; LB; incubation time: overnight (16-24 h).
Turning to `Cc1ccc(S(=O)(=O)N2C[C@@H](O)COC[C@H]3O[C@H](CC(=O)NCCCN(C)C)CC[C@@H]32)cc1`, the relative growth was inactive: 0.987.
`CCOC(=O)[C@H](C(C)=O)[C@H]1CCS(=O)(=O)C1`: the relative growth was inactive: 0.897.
With `C[C@@H]1CN([C@@H](C)CO)C(=O)c2cccc(NC(=O)Nc3ccc(C(F)(F)F)cc3)c2O[C@H]1CN(C)Cc1ccc(C(=O)Nc2ccccc2N)cc1`, the relative growth is inactive: 0.956.
For `COCC(=O)N(C)C[C@H]1Oc2cc(-c3ccc(C#N)cc3)ccc2S(=O)(=O)N([C@H](C)CO)C[C@H]1C`, the relative growth is inactive: 0.997.
`CC(C)NC(=O)N(C)C[C@H]1OCCCC[C@@H](C)Oc2ccc(NS(=O)(=O)c3cn(C)cn3)cc2C(=O)N([C@H](C)CO)C[C@H]1C`: the relative growth is inactive: 0.963.
As to `Cc1ccc(S(=O)(=O)Nc2cccc3c2O[C@H](CN(C)Cc2ccc(-c4ccccc4)cc2)[C@@H](C)CN([C@H](C)CO)C3=O)cc1`, the relative growth was inactive: 1.05.
Then `C[C@@H]1CCCCO[C@@H](CN(C)S(=O)(=O)c2ccccc2)[C@H](C)CN([C@@H](C)CO)C(=O)c2cc(NC(=O)Nc3ccc4c(c3)OCO4)ccc2O1`, with inactive: 0.993; and `C[C@@H]1CCCCO[C@H](CN(C)Cc2ccc(C(F)(F)F)cc2)[C@@H](C)CN([C@@H](C)CO)C(=O)c2cc(NS(=O)(=O)c3cccs3)ccc2O1`, with inactive: 1.05.
Consider `Cc1noc(C)c1S(=O)(=O)N(C)C[C@@H]1Oc2ccc(NC(=O)Cc3cn(C)c4ccccc34)cc2CC(=O)N([C@@H](C)CO)C[C@@H]1C`, for which the relative growth was inactive: 0.971.
On to `C[C@H]1CN([C@@H](C)CO)C(=O)c2cc(-c3cccnc3)cnc2O[C@H]1CN(C)C(=O)Nc1ccc2c(c1)OCO2`, for which the relative growth is inactive: 1.01.
On to `CCOCCOCCOc1oc(C(=O)NC2CCCCC2)c(-c2ccc(Cl)cc2)c1S(=O)(=O)c1ccc(Cl)cc1`, for which the relative growth is inactive: 1.02.
As to `NS(=O)(=O)Cc1noc2ccccc12`, the relative growth is inactive: 0.932.
For the compound `Cc1noc(C)c1S(=O)(=O)Nc1cccc2c1O[C@H](CN(C)C(=O)Nc1ccc3c(c1)OCO3)[C@H](C)CN([C@@H](C)CO)C2=O`, the relative growth is inactive: 1.02.
As for `COCc1cn(CC[C@H]2CC[C@H](NC(=O)CCN3CCCCC3)[C@H](CO)O2)nn1`, the relative growth was inactive: 1.03.
As for `C[C@@H]1CCCCO[C@@H](CN(C)CC2CCCCC2)[C@@H](C)CN([C@@H](C)CO)C(=O)c2cc(NC(=O)Nc3cccc4ccccc34)ccc2O1`, the relative growth is inactive: 1.
As to `C[C@H]1CN([C@@H](C)CO)C(=O)c2cc(-c3ccc(C(=O)N(C)C)cc3)cnc2O[C@@H]1CN(C)C(=O)CN(C)C`, the relative growth was inactive: 0.993.
To `C[C@H]1CN([C@@H](C)CO)C(=O)c2cc(-c3ccc(F)cc3)cnc2O[C@@H]1CN(C)C(=O)Cc1ccccn1` belongs inactive: 1.03; to `COc1ccc(S(=O)(=O)N(C)C[C@H]2Oc3cc(C#CC4CC4)ccc3S(=O)(=O)N([C@H](C)CO)C[C@H]2C)cc1`, inactive: 1.04; to `CN1C(=O)CS(=O)(=O)[C@@H]1c1ccccc1`, inactive: 0.995.
To `C=CCNC(=O)[C@@H]1[C@H]2C(=O)O[C@H](c3ccccc3)[C@H](c3ccccc3)N2[C@H](c2ccccc2OCCO)[C@@]12C(=O)Nc1ccc(C#Cc3ccc(OC)cc3)cc12` belongs inactive: 1.04; to `C[C@H](CO)N1C[C@H](C)[C@H](CN(C)Cc2ccc(Oc3ccccc3)cc2)Oc2ccc(NS(=O)(=O)c3ccccc3)cc2CC1=O`, inactive: 1.02.
In the case of `C[C@@H]1CCCCO[C@H](CN(C)S(=O)(=O)c2cn(C)cn2)[C@@H](C)CN([C@@H](C)CO)C(=O)c2cc(NS(C)(=O)=O)ccc2O1`, the relative growth was inactive: 0.994.
To `CCCCCCCCCCOc1cc2c(O)c(C(=O)OCC)cnc2cc1OCC` belongs inactive: 0.912; to `C[C@@H]1CN([C@H](C)CO)S(=O)(=O)c2ccc(C#Cc3ccc(F)cc3)cc2O[C@@H]1CN(C)CC1CC1`, inactive: 0.931; to `O=C(C[C@@H]1C[C@@H]2c3cc(NS(=O)(=O)c4ccc(F)cc4)ccc3O[C@@H]2[C@@H](CO)O1)NCc1ccccc1F`, inactive: 1.03.
With `CC(=O)OC1(C(C)=O)CCC2C3CC(C)C4=CC(=O)CCC4(C)C3CCC21C` (stereo unspecified), the relative growth was inactive: 0.878.
As to `COc1ccccc1C#Cc1ccc2c(c1)O[C@H](CN(C)C(C)=O)[C@@H](C)CN([C@H](C)CO)S2(=O)=O`, the relative growth was inactive: 0.997.
With `CCCNC(=O)N(C)C[C@@H]1Oc2cc(C#Cc3cccc(F)c3)ccc2S(=O)(=O)N([C@H](C)CO)C[C@@H]1C`, the relative growth is inactive: 1.01.
Take `CC(C)NC(=O)Nc1cccc2c1O[C@H](CN(C)C(=O)NC1CCCCC1)[C@H](C)CN([C@@H](C)CO)C2=O`: the relative growth was inactive: 0.984.
As for `O=c1nc[nH]c2ncccc12`, the relative growth was inactive: 1.01.
For `C[C@H](CO)N1C[C@H](C)[C@@H](CN(C)C(=O)Nc2ccc3c(c2)OCO3)OCCCC[C@H](C)Oc2ccc(NS(=O)(=O)c3ccc(F)cc3)cc2C1=O`, the relative growth was inactive: 1.04.
Turning to `COc1ccc2c(c1)C(=O)N(CCc1ccc(S(=O)(=O)NC(=O)NC3CCCCC3)cc1)C(=O)C2(C)C`, the relative growth was inactive: 1.05.
Then `COc1ccc2c3c([nH]c2c1)[C@@H](CO)N(C[C@]13CN(Cc2ccccc2)C1)S(=O)(=O)c1cn(cn1)C`, with inactive: 1.03; and `C[C@H](CO)N1C[C@H](C)[C@H](CN(C)Cc2ccc(Cl)c(Cl)c2)Oc2ccc(NC(=O)CCC(F)(F)F)cc2CC1=O`, with inactive: 0.997.
Then `C[C@@H]1CCCCO[C@@H](CN(C)S(=O)(=O)c2ccccc2)[C@@H](C)CN([C@H](C)CO)C(=O)c2cc(NC(=O)Nc3ccccc3)ccc2O1`, with inactive: 1.01; and `C[C@H](CO)N1C[C@H](C)[C@@H](CN(C)C(=O)Nc2cccc3ccccc23)Oc2ccc(NC(=O)Nc3ccc(F)cc3)cc2C1=O`, with inactive: 0.924.
On to `CO[C@H]1CN(C)C(=O)c2ccc(NC(=O)C3CC3)cc2OC[C@@H](C)N(C(=O)Cc2ccccn2)C[C@H]1C`, for which the relative growth is inactive: 0.991.
For `CS(=O)(=O)N1[C@@H]2c3cccc(=O)n3C[C@H]1[C@H](CO)[C@H]2C(=O)NCc1ccccc1`, the relative growth was inactive: 1.01.
As to `N#Cc1cccnc1Oc1ccccc1`, the relative growth was inactive: 1.03.
`COc1ccc2c3c([nH]c2c1)[C@@H](CO)N(C[C@]13CN(C1)S(=O)(=O)C)C(=O)C1CC1`: the relative growth is inactive: 0.977.
With `CN1CCN(C(=O)C[C@@H]2C[C@@H]3c4cc(NC(=O)c5ccc6c(c5)OCO6)ccc4O[C@@H]3[C@@H](CO)O2)CC1`, the relative growth is inactive: 0.982.
To `COc1ccc(CN(C)C[C@@H]2OCCCC[C@H](C)Oc3ccc(NS(=O)(=O)c4ccc(F)cc4)cc3C(=O)N([C@@H](C)CO)C[C@@H]2C)cc1` belongs inactive: 1.01; to `COc1ccc(NC(=O)Nc2ccc3c(c2)[C@@H]2C[C@@H](CC(=O)NCc4ccccn4)O[C@@H](CO)[C@@H]2O3)cc1`, inactive: 1.01; to `C[C@@H]1CN([C@@H](C)CO)S(=O)(=O)c2ccc(-c3cccc(F)c3)cc2O[C@H]1CN(C)S(C)(=O)=O`, inactive: 1.
To `C[C@H]1CCCCO[C@@H](CN(C)CC2CCCCC2)[C@@H](C)CN([C@@H](C)CO)C(=O)c2cc(NC(=O)Nc3ccc(F)cc3)ccc2O1` belongs inactive: 0.99; to `CC(C)[Si](C#CCCCC#N)(O[C@H](c1ccccc1)c1cn(Cc2cccc(Cl)c2)nn1)C(C)C`, inactive: 1.01; to `COc1ccc2c(c1)c(-c1ccccc1)nn2-c1ccc(C)cc1`, inactive: 0.844.
On to `CO[C@@H]1CN(C)C(=O)c2cc(NC(=O)CCCC[C@@H]3SC[C@@H]4NC(=O)N[C@@H]43)ccc2OC[C@@H](C)N(Cc2ccc(-c3ccccn3)cc2)C[C@@H]1C`, for which the relative growth was inactive: 0.949.
For `C[C@H]1CN([C@@H](C)CO)C(=O)Cc2cc(NS(=O)(=O)c3ccc(Cl)cc3)ccc2O[C@@H]1CN(C)Cc1ccc(Oc2ccccc2)cc1`, the relative growth was inactive: 1.01.
`Cc1ccc(S[C@]2(C(=O)NCCCN(C)C)CC(=O)N(C3Cc4ccccc4C3)[C@@H]2c2ccc(CO)cc2I)cc1`: the relative growth was inactive: 0.966.
Turning to `C[C@@H]1CN([C@H](C)CO)C(=O)c2cc(NC(=O)Nc3ccc(F)cc3)ccc2O[C@@H](C)CCCCO[C@@H]1CN(C)S(=O)(=O)c1ccccc1`, the relative growth was inactive: 1.04.
In the case of `C[C@@H]1CN([C@H](C)CO)C(=O)c2cc(N(C)C)ccc2O[C@@H](C)CCCCO[C@H]1CN(C)Cc1ccc(C(=O)Nc2ccccc2N)cc1`, the relative growth is inactive: 1.
As for `Cc1nn(C)cc1NC(=O)C[C@@H]1CC[C@H]2[C@H](COc3ccc(NC(=O)C4CCOCC4)cc3C(=O)N2C)O1`, the relative growth is inactive: 1.
Then `NC(=O)Nc1nc2ccccc2[nH]c1=O`, with inactive: 0.927; and `COc1ccc(CN(C)C[C@@H]2OCCCC[C@@H](C)Oc3ccc(NC(=O)Nc4ccc5c(c4)OCO5)cc3C(=O)N([C@@H](C)CO)C[C@H]2C)cc1`, with inactive: 1.04; and `Nc1cc(-c2ccccc2)ccc1O`, with inactive: 0.97.
As to `C[C@H]1CN([C@@H](C)CO)C(=O)c2cccc(NC(=O)c3ccc(-c4nccs4)cc3)c2O[C@H]1CN(C)C(=O)Nc1ccc2c(c1)OCO2`, the relative growth was inactive: 1.01.
Then `COc1ccc(S(=O)(=O)N(C)C[C@@H]2Oc3ccc(NC(=O)c4ccncc4)cc3C(=O)N([C@@H](C)CO)C[C@@H]2C)cc1`, with inactive: 0.719.
Regarding `C[C@H](CO)N1C[C@H](C)[C@@H](CN(C)C(=O)Nc2ccc(C(F)(F)F)cc2)Oc2ccc(NC(=O)NC3CCCCC3)cc2C1=O`, the relative growth is inactive: 1.
For the compound `Cc1ccc(S(=O)(=O)Nc2cc([C@@H](C(=O)OC(C)C)C(=O)C(F)(F)F)c(O)c3ccccc23)c(C)c1`, the relative growth is inactive: 0.994.
Regarding `C[C@@H]1CN([C@@H](C)CO)C(=O)c2cc(NC(=O)C3CCCCC3)ccc2O[C@@H](C)CCCCO[C@@H]1CN(C)Cc1ccc2c(c1)OCO2`, the relative growth is inactive: 0.976.

Values taken from the supplement of paper PMC9446081.
